Measurements as given in patent US12213955B2 (priority 2017, dated 2025).

Experiments:
[1] = test system: influenza A(H1N1)pdm09 virus; format: cell-based, A/Hong Kong/415742/2009(H1N1)pdm09
[2] = test system: influenza A(H1N1)pdm09 virus; format: cell-based, A/Hong Kong/415742/2009(H1N1)pdm09; remark: listed apart in the source

Row | Compound | decrease in viral titer in the supernatant vs DMSO-treated control (influenza A(H1N1)pdm09) | concentrations inhibiting replication of influenza A(H1N1)pdm09 [1] | selectivity index (CC50/IC50) [1] | cell protection against influenza A(H1N1)pdm09 virus infection [2]
1 | CCCCCCCCCCCCCCC(Br)C(=O)O (stereo not drawn) [2-BP] | 1 log 10/ml |  |  | 
2 | CC1(C)CCC(C)(C)c2cc(C(=O)Nc3ccc(C(=O)O)cc3)ccc21 [AM580] |  | nanomolar to low micromolar | 159 | protected cells against infection
3 | CCCCCCCCCCCCC/C=C/[C@@H](O)[C@H](CO)NC(=O)CCCCCCCCCCCCCCC [C16 Ceramide] |  |  |  | specifically protected MDCK cells
4 | O=Cc1c2[nH]c3ccccc3c2cc2[nH]c3ccccc3c12 [FICZ] |  |  |  | specifically protected MDCK cells
